The values that follow come from publication PMC4762780.

By UniProt entry, the sequences of proteins in these tests, tags left out. Where a name states a change or a piece, a line headed by the entry shows the natural chain unless it says otherwise. Chains listed by the source or under a name are the forms on record and can include a tag or linker.
FLAG-tagged WT MEF2C (myocyte enhancer factor 2C) (Q8CFN5, form named): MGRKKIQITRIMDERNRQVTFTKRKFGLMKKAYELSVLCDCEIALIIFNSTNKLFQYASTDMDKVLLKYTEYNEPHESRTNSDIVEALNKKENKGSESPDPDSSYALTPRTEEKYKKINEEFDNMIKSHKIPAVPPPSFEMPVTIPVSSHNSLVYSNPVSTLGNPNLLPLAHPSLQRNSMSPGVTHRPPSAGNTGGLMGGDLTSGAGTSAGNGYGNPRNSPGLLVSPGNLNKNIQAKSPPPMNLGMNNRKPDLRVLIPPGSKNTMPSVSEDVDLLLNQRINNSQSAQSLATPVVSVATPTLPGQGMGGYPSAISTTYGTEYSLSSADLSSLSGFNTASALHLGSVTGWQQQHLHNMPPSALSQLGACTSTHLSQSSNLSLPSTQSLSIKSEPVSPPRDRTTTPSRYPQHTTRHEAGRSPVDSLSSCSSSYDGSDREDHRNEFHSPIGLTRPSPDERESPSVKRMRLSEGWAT
UniProt Q06413: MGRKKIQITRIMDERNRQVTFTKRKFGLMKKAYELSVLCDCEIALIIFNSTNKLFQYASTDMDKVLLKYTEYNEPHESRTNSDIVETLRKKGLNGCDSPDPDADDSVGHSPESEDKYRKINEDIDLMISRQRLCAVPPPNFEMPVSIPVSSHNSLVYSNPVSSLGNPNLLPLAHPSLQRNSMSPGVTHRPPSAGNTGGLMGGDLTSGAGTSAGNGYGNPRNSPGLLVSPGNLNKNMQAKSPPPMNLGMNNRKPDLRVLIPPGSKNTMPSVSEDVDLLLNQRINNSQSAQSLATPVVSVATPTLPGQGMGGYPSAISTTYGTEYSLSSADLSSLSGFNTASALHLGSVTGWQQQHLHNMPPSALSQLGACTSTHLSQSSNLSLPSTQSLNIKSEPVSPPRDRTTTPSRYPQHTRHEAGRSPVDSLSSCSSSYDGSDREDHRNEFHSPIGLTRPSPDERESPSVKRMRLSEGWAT

In assay [1] the target is FLAG-tagged WT MEF2C (myocyte enhancer factor 2C) (UniProt Q8CFN5). Nature of the assay: co-IP; 293T cells co-transfected; lysis in 50mM HEPES, 140mM NaCl, 1mM EDTA, 0.5% Triton-X, 0.5% sodium deoxycholate; overnight IP with anti-FLAG M2 (MEF2C as bait); washed with high-salt lysis buffer (500mM NaCl); blotted with anti-Myc or anti-V5; for WT MEF2C and EBF1 also with benzonase treatment, which did not prevent co-IP.

The target in assay [2] is endogenous MEF2C of mouse pre-B cells (mouse (endogenous in AMuLV-transformed pre-B cells)) (UniProt Q8CFN5). Nature of the assay: co-IP; endogenous proteins; mouse pre-B cells and human BJAB cells cross-linked for 10 minutes with 1% formaldehyde; overnight IP with MEF2C antibodies (Cell Signaling 5030) or control normal rabbit IgG; washed with high-salt lysis buffer; immunoblotted with EBF1 antibody. (In general: Immunoblotting shows a protein as a band on a membrane.)

The target in assay [3] is endogenous MEF2C of human BJAB cells (human (endogenous in BJAB)) (UniProt Q06413). The assay is described as above.

Results are given in words; binding and its absence hold for the method and conditions named. Binding seen in cells or lysates may run through a third protein. Some results given as binding are weak or reduced against the parent protein; the word gives no strength. For some of these results: Sequences can lack the tags named with a protein.

B1: Myc-tagged EBF1 (early B cell factor-1) (protein, UniProt Q07802 1-591)
chain: MFGIQESIQRSGSSMKEEPLGSGMNAVRTWMQGAGVLDANTAAQSGVGLARAHFEKQPPSNLRKSNFFHFVLALYDRQGQPVEIERTAFVGFVEKEKEANSEKTNNGIHYRLQLLYSNGIRTEQDFYVRLIDSMTKQAIVYEGQDKNPEMCRVLLTHEIMCSRCCDKKSCGNRNETPSDPVIIDRFFLKFFLKCNQNCLKNAGNPRDMRRFQVVVSTTVNVDGHVLAVSDNMFVHNNSKHGRRARRLDPSEGTPSYLEHATPCIKAISPSEGWTTGGATVIIIGDNFFDGLQVIFGTMLVWSELITPHAIRVQTPPRHIPGVVEVTLSYKSKQFCKGTPGRFIYTALNEPTIDYGFQRLQKVIPRHPGDPERLPKEVILKRAADLVEALYGMPHNNQEIILKRAADIAEALYSVPRNHNQLPALANTSVHAGMMGVNSFSGQLAVNVSEASQATNQGFTRNSSSVSPHGYVPSTTPQQTNYNSVTTSMNGYGSAAMSNLGGSPTFLNGSAANSPYAIVPSSPTMASSTSLPSNCSSSSGIFSFSPANMVSAVKQKSAFAPVVRPQTSPPPTCTSTNGNSLQAISGMIVPPM
For the molecule B1, the binding result in assay [1] is recorded as “binds”.

B2: endogenous EBF1 of mouse pre-B cells (protein, UniProt Q07802 1-591)
chain: B1 chain
For the molecule B2, the binding entry in assay [2] is “binds”.

B3: endogenous EBF1 of human BJAB cells (protein, UniProt Q9UH73 1-591)
chain: B1 chain
As to B3, in assay [3], the binding result is listed as “binds”.

B4: Myc-tagged E47 (E2A isoform) (protein, UniProt E9PVV2 1-649)
chain: MMNQSQRMAPVGSDKELSDLLDFSMMFPLPVANGKSRPASLGGTQFAGSGLEDRPSSGSWGSSDQNSSSFDPSRTYSEGAHFSDSHSSLPPSTFLGAGLGGKGSERNAYATFGRDTSVGTLSQAGFLPGELSLSSPGPLSPSGIKSSSQYYPSFPSNPRRRAADGGLADTQPKKVRKVPPGLPSSVYPPSSGDSYSRDAAAYPSAKTPSSAYPSPFYVADGSLHPSAELWSTPSQVGFGPMLGDGSSPLPLAPGSSSVGSGTFGGLQQQDRMGYQLHGSEVNGSLPAVSSFSAAPGTYSGTSGHTPPVSGAAAESLLGTRGTTASSSGDALGKALASIYSPDHSSNNFSPSPSTPVGSPQGLPGTSQWPRAGAPSALSPNYDAGLHGLSKMEDRLDEAIHVLRSHAVGTASDLHGLLPGHGALTTSFTGPMSLGGRHAGLVGGSHPEEGLTSGASLLHNHASLPSQPSSLPDLSQRPPDSYSGLGRAGTTAGASEIKREEKEDEEIASVADAEEDKKDLKVPRTRTSSTDEVLSLEEKDLRDRERRMANNARERVRVRDINEAFRELGRMCQLHLKSDKAQTKLLILQQAVQVILGLEQQVRERNLNPKAACLKRREEEKVSGVVGDPQLALSAAHPGLGEAHNPAGHL
Consider B4, for which the binding entry in assay [1] is listed as “no binding”.
